This is one part of the list. At the low end of the ranking, values are background and their order means little.

This assay addresses GST-SBP-SLBP (stem-loop binding protein) (UniProt Q14493). Briefly: targeted RNA Bind-n-Seq.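 Note: DESeq read counts versus GST-SBP nonspecific binding control pulldown.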 The settings on record: RBNS binding buffer: 25 mM Tris pH 7.5, 150 mM KCl, 3 mM MgCl2, 0.1% Tween, 0.5 mg/mL BSA, 1 mM DTT; 27 nM protein, 750 pM RNA pool; temperature not stated; high values mean tight binding.
For the sequence “GGUCACGUCUCAAUCAACUCUUCGCCAGGAGUUUUCUCCUGUUUUCUCAACAGCUCGCAGUCAAG”, the binding signal (log2 fold change) was determined as 0.0795.
Consider “GGUCACGUCUCAAUCAACUCUCACGAGGGGGGGAAAACCCCUUUACCCUCACAAUCAACAGCUCGCAGUCAAG”, for which the binding signal (log2 fold change) is 0.0362.
As for “GGUCACGUCUCAAUCAACUCUUCUUCCAGGGAAAGCCCUGGCUUACUCAACAGCUCGCAGUCAAG”, the binding signal (log2 fold change) is -0.211.
On to “GGUCACGUCUCAAUCAACUCUUAAGAGGGGGGGAAAACCCCUUUACCCUCGAAAUCAACAGCUCGCAGUCAAG”, for which the binding signal (log2 fold change) is -0.613.
As for “GGUCACGUCUCAAUCAACUCUUUUCCCAGGGAAAUCCCUGGCUAACUCAACAGCUCGCAGUCAAG”, the binding signal (log2 fold change) is -0.246.
Regarding “GGUCACGUCUCAAUCAACUCUAUCUCCAGGGAAACCCCUGGCUAAUUCAACAGCUCGCAGUCAAG”, the binding signal (log2 fold change) stood at 0.139.
“GGUCACGUCUCAAUCAACUCAUACGAGGGGGGGAAAACCCCUUUACCCUCAAUUUCAACAGCUCGCAGUCAAG”: the binding signal (log2 fold change) amounted to 0.0985.
For “GGUCACGUCUCAAUCAACUCAAUCCCAGGAGUUUACUCCUGCUUAUUCAACAGCUCGCAGUCAAG” the value was 0.163; for “GGUCACGUCUCAAUCAACUCAUUCCCAGGAGUUUGCUCCUGUAUACUCAACAGCUCGCAGUCAAG”, 0.181; for “GGUCACGUCUCAAUCAACUCAACAGAGGGGGGGAAAACCCCUUUACCCUCAAUAUCAACAGCUCGCAGUCAAG”, 0.362.
Turning to “GGUCACGUCUCAAUCAACUCUUUCCCAGGAGUUUCCUCCUGCUAAUUCAACAGCUCGCAGUCAAG”, the binding signal (log2 fold change) was determined as 0.0273.
As to “GGUCACGUCUCAAUCAACUCACAAGAGGGGGGGAAAACCCCUUUACCCUCCUAAUCAACAGCUCGCAGUCAAG”, the binding signal (log2 fold change) came to 0.145.
Take “GGUCACGUCUCAAUCAACUCUUAAGAGGGGGGGAAAACCCCUUUACCCUCAUCAUCAACAGCUCGCAGUCAAG”: the binding signal (log2 fold change) is -0.00482.
As for “GGUCACGUCUCAAUCAACUCAAUUUCAGGAGUUUUCUCCUGCAAUCUCAACAGCUCGCAGUCAAG”, the binding signal (log2 fold change) is 0.0948.
Consider “GGUCACGUCUCAAUCAACUCUAUCCCAGGAGUUUGCUCCUGCAUUUUCAACAGCUCGCAGUCAAG”, for which the binding signal (log2 fold change) is 0.0258.
Take “GGUCACGUCUCAAUCAACUCAUAAGAGGGGGGGAAAACCCCUUUGCCCUCAUUCUCAACAGCUCGCAGUCAAG”: the binding signal (log2 fold change) was determined as 0.0506.
For “GGUCACGUCUCAAUCAACUCAACUCCCAGGGAAACCCCUGGCUUACUCAACAGCUCGCAGUCAAG”, the binding signal (log2 fold change) is -0.278.
Turning to “GGUCACGUCUCAAUCAACUCUACUCCAGGAGUUUACUCCUGCAAACUCAACAGCUCGCAGUCAAG”, the binding signal (log2 fold change) was 0.0519.
For “GGUCACGUCUCAAUCAACUCAUUCCCCAGGGAAACCCCUGGCUUUCUCAACAGCUCGCAGUCAAG”, the binding signal (log2 fold change) was -0.124.
For “GGUCACGUCUCAAUCAACUCACUAGAGGGGGGGAAAACCCCUUUACCCUCCUAAUCAACAGCUCGCAGUCAAG”, the binding signal (log2 fold change) turned out to be 0.0858.
With “GGUCACGUCUCAAUCAACUCUACUCCAGGAGUUUCCUCCUGCAAACUCAACAGCUCGCAGUCAAG”, the binding signal (log2 fold change) was -0.0806.
Consider “GGUCACGUCUCAAUCAACUCAUUCUCCAGGGAAAGCCCUGGCAUACUCAACAGCUCGCAGUCAAG”, for which the binding signal (log2 fold change) was -0.213.
On to “GGUCACGUCUCAAUCAACUCCUUAGAGGGGGGGAAAACCCCUUUGCCCUCAUCCUCAACAGCUCGCAGUCAAG”, for which the binding signal (log2 fold change) stood at 0.0243.
On to “GGUCACGUCUCAAUCAACUCAAUUCCCAGGGAAAUCCCUGGCAAACUCAACAGCUCGCAGUCAAG”, for which the binding signal (log2 fold change) was -0.103.
As to “GGUCACGUCUCAAUCAACUCAAUCCCAGGAGUUUUCUCCUGCAUUUUCAACAGCUCGCAGUCAAG”, the binding signal (log2 fold change) amounted to 0.0807.
For “GGUCACGUCUCAAUCAACUCUUCCCCAGGAGUUUCCUCCUGUUUAUUCAACAGCUCGCAGUCAAG” the value was 0.23; for “GGUCACGUCUCAAUCAACUCUUCUUCAGGAGUUUUCUCCUGCAAAUUCAACAGCUCGCAGUCAAG”, -0.0994; for “GGUCACGUCUCAAUCAACUCUAGUCCCAGGGAAAUCCCUGGUUAUUUCAACAGCUCGCAGUCAAG”, -0.398.
The same measure for “GGUCACGUCUCAAUCAACUCAUCCUCCAGGGAAACCCCUGGUUUACUCAACAGCUCGCAGUCAAG”: -0.00428; for “GGUCACGUCUCAAUCAACUCAGUCUCCAGGGAAAUCCCUGGCUAAUUCAACAGCUCGCAGUCAAG”: -0.416; for “GGUCACGUCUCAAUCAACUCUUUCUCAGGAGUUUCCUCCUGUAAACUCAACAGCUCGCAGUCAAG”: -0.0726.
In the case of “GGUCACGUCUCAAUCAACUCAUUUUCCAGGGAAAACCCUGGCUAUUUCAACAGCUCGCAGUCAAG”, the binding signal (log2 fold change) came out at 0.00134.
Consider “GGUCACGUCUCAAUCAACUCAAUAGAGGGGGGGAAAACCCCUUUACCCUCGUCUUCAACAGCUCGCAGUCAAG”, for which the binding signal (log2 fold change) is -0.00387.
With “GGUCACGUCUCAAUCAACUCAUACGAGGGGGGGAAAACCCCUUUACCCUCCAUUUCAACAGCUCGCAGUCAAG”, the binding signal (log2 fold change) is -0.225.
The same measure for “GGUCACGUCUCAAUCAACUCUUUCCCAGGAGUUUUCUCCUGCUUUCUCAACAGCUCGCAGUCAAG”: 0.00375; for “GGUCACGUCUCAAUCAACUCAUCGUCAGGAGUUUUCUCCUGCUUAUUCAACAGCUCGCAGUCAAG”: -0.0928; for “GGUCACGUCUCAAUCAACUCUACUCCAGGAGUUUCCUCCUGUUAUUUCAACAGCUCGCAGUCAAG”: 0.0956.
For “GGUCACGUCUCAAUCAACUCAGUUCCCAGGGAAACCCCUGGCUUAUUCAACAGCUCGCAGUCAAG” the value was -0.418; for “GGUCACGUCUCAAUCAACUCUAUAGAGGGGGGGAAAACCCCUUUACCCUCGUCAUCAACAGCUCGCAGUCAAG”, -0.538.
Take “GGUCACGUCUCAAUCAACUCUUCCCCCAGGGAAAACCCUGGUUAAUUCAACAGCUCGCAGUCAAG”: the binding signal (log2 fold change) turned out to be 0.0968.
As for “GGUCACGUCUCAAUCAACUCAUCCCCCAGGGAAAGCCCUGGUUAUUUCAACAGCUCGCAGUCAAG”, the binding signal (log2 fold change) is 0.061.
As for “GGUCACGUCUCAAUCAACUCAAUAGAGGGGGGGAAAACCCCUUUGCCCUCACCUUCAACAGCUCGCAGUCAAG”, the binding signal (log2 fold change) is -0.204.
Consider “GGUCACGUCUCAAUCAACUCAUCUCCAGGAGUUUACUCCUGCUUAUUCAACAGCUCGCAGUCAAG”, for which the binding signal (log2 fold change) was -0.0718.
Turning to “GGUCACGUCUCAAUCAACUCAACUCCAGGAGUUUCCUCCUGUAAUCUCAACAGCUCGCAGUCAAG”, the binding signal (log2 fold change) came to 0.0408.
For “GGUCACGUCUCAAUCAACUCUAUUCCAGGAGUUUACUCCUGCAUUCUCAACAGCUCGCAGUCAAG”, the binding signal (log2 fold change) came out at 0.124.
Consider “GGUCACGUCUCAAUCAACUCUAUCUCAGGAGUUUUCUCCUGCAAACUCAACAGCUCGCAGUCAAG”, for which the binding signal (log2 fold change) worked out at 0.0491.
As for “GGUCACGUCUCAAUCAACUCAACUCCCAGGGAAAGCCCUGGCAUAUUCAACAGCUCGCAGUCAAG”, the binding signal (log2 fold change) was -0.159.

Source of the values: article PMC5892938.
